# According to the supplement of paper PMC3334620:
# Whole data set: some 33,000 sequences, median “E-score (-0.5 to 0.5)” near -0.01, cut for the highest 2% near 0.26. The list shows a part of the results.
# Molecular target: Ste12 (UniProt P13574)
# Test: PBM E-score (8-mer binding enrichment) (E-score (-0.5 to 0.5)); higher = stronger / more preferred TF binding; most listed sequences are background and not binding sites
# Settings: protein concentration: 200 nM; construct: GST-DNA-binding domain
# Summary of the method: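 GST-tagged yeast TFs (full-length or DNA-binding domain) were made by PURExpress in vitro transcription/translation and applied at about 100-200 nM to universal all-10-mer Agilent arrays. The arrays were made double-stranded by primer extension, on fresh or once-stripped slides. Bound protein was detected with fluorescent anti-GST, and scans were normalised with masliner. Each ungapped eight-base word, pooled with its reverse complement, received an E-score (modified Wilcoxon-Mann-Whitney statistic) from the Universal PBM Analysis Suite.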
row,Sequence,PBM E-score
1,ACTCCGCC,0.0712
2,TAGAACGA,-0.0295
3,CAACGGCG,-0.00445
4,AGTGTTGC,-0.00999
5,AAGAGAAG,-0.119
6,AGCGTTGC,-0.169
7,TAATCGCA,0.0803
8,AGTCAGAG,-0.0659
9,TAAATGCA,0.0858
10,GGAGTCCA,-0.128
11,TAATTAAA,0.173
12,ATCATTGG,0.011
13,CATCCCTC,0.115
14,AGCCTACG,-0.0441
15,CATTGGAC,-0.136
16,CGTAAATC,0.0698
17,CGAGGTTA,0.0183
18,CCTTTTTA,0.051
19,TGAGGCCA,-0.00569
20,ACTGTGCA,-0.11
21,ATTAAGCA,0.171
22,CAGTGCTC,-0.0905
23,AAAACCTC,0.207
24,CGCCCTGC,0.0411
25,GAGGGAGA,-0.134

row,Sequence,PBM E-score
1,TAACATGA,0.098
2,TCGGTGAA,0.0553
3,AAGCTTAC,-0.066
4,CGCAACCG,-0.135
5,GATTTAGA,0.173
6,GCGAGTTA,0.0798
7,CAGCTTCG,-0.167
8,GACTTCGA,-0.139
9,ATAGTAAG,0.0906
10,CACGTACA,0.0883
11,AGTCCGCC,-0.0179
12,CGGGGTGA,0.198
13,AGCGAGGC,-0.16
14,ATAGGATG,0.149
15,AATCTATA,0.186
16,AAGCGTAC,-0.237
17,AAACTTTA,0.294
18,AGCCGGAT,-0.0521
19,CACAACAA,0.0346
20,AATCTGGT,0.0602
21,CGTACTAC,-0.0876
22,CCTGAGGA,-0.0103
23,CAAGTGGA,-0.0357
24,AGTTTTTA,0.142
25,AGGAAGCA,-0.0194

row,Sequence,PBM E-score
1,AGATTCAT,-0.106
2,CAGTCGCC,-0.0794
3,TGAACCCA,-0.0458
4,GAAACTTA,0.26
5,CGTAGAAA,-0.0538
6,CTTGGACA,-0.127
7,AGCCCTAT,-0.115
8,CTTACACC,0.016
9,AAAAACAT,0.241
10,ACCCCTAC,-0.0459
11,AATAGGTG,0.0143
12,ACACCCGC,0.191
13,GACCAAAC,0.11
14,TAGTCCGA,0.124
15,GCTCAGCA,-0.0833
16,AAGTATTA,0.102
17,CCAAATGG,-0.145
18,CGGTTCGC,-0.0544
19,AAGGCGTA,-0.167
20,GTGGTTGA,-0.0806
21,AGATGGAA,0.088
22,AATTTAGT,0.203
23,TGCGGCCA,-0.00812
24,CGAGCAGC,-0.0446
25,GAGGATCA,0.0564

row,Sequence,PBM E-score
1,GCTTCGAC,-0.0907
2,ACGTAGGG,-0.298
3,AGTCAGGG,-0.269
4,AGCCTTGC,-0.0381
5,ACTATGTC,-0.194
6,ATAGGCTG,-0.00172
7,CCCAGACG,-0.176
8,CCCCCACC,-0.207
9,ATACTCTC,0.0742
10,CACGGGAA,-0.223
11,GAGAACCA,0.0267
12,ACTCTGAG,0.0655
13,CGGTCGTC,-0.194
14,ACCATGGT,-0.205
15,CCCCTTTA,-0.325
16,CGGGAAAC,0.166
17,ATACCCCC,0.0202
18,GGCGGAAA,0.116
19,AGGCTCAG,-0.0571
20,CCTAGGTA,0.0058
21,ACGCGCCG,-0.014
22,AATCCATG,0.0722
23,AGAGGAGC,-0.244
24,AACAGTTA,0.111
25,CCGCGAAC,-0.0224

row,Sequence,PBM E-score
1,ACTTCATG,-0.0938
2,CACCCGTA,-0.165
3,AAATTCAT,0.0981
4,ATCGTCCG,-0.0253
5,CCTCATGC,-0.21
6,CACCCTGG,-0.0322
7,ACAGCCAC,-0.0241
8,ATTGCAGA,0.0943
9,CCGTAACC,-0.0242
10,AGGGCACT,-0.131
11,ATCTCTTG,-0.122
12,CTCCCATA,-0.0685
13,GCTACGCC,-0.233
14,GAGGGAAA,-0.125
15,CGATAGTC,-0.186
16,CGTGGCAA,-0.0954
17,TCATTTAA,0.0578
18,GTACCGAC,-0.124
19,AGAACTCT,-0.0638
20,AGGCACCG,-0.185
21,GAGAGGCA,-0.223
22,CCACACCA,0.0353
23,TCTGGTAA,0.174
24,ATGGATAC,-0.00603
25,AAACAAAG,0.233

row,Sequence,PBM E-score
1,AAGTAAAC,0.0949
2,GTCGCCAC,-0.0513
3,CCTTCGTA,-0.0727
4,CTTTCGGC,0.0422
5,CACATCTG,-0.0216
6,AGTACGGG,-0.102
7,TAAGCTAA,0.0672
8,AATCGCAA,0.0922
9,CTGTTTAA,0.22
10,ATACCGGC,0.0847
11,GAGTGACC,-0.121
12,GGCAATTA,0.137
13,GGATTGGA,0.00134
14,CGACTTAC,-0.212
15,AAGGGCAG,-0.0445
16,ACAGTAAA,0.117
17,GCGTAACC,-0.0453
18,CGCCACCA,-0.00185
19,ATGGTTAC,0.151
20,CATATAGC,0.0249
21,CCGTTGAA,0.0239
22,CAGAATCC,-0.0318
23,ATCGGCTA,0.0548
24,TATAACGA,-0.0531
25,CCCACCTA,0.155

row,Sequence,PBM E-score
1,ACGAGTGC,-0.151
2,ACTAAACC,0.0959
3,AGGTCGAA,0.145
4,AGACGCGC,-0.0705
5,CGACCCGA,-0.171
6,AAGAATGT,0.00091
7,CCAGGCGG,0.0621
8,GGGTGGCA,-0.0324
9,GGTCCCAC,-0.293
10,TCCGAGAA,0.041
11,GAATGACA,0.0695
12,AATAGCGT,0.0141
13,CGAGCTCA,0.0946
14,CAGGTAAG,0.0995
15,AGGCGGTA,-0.0148
16,GTAAGCGA,-0.222
17,CCATAAAC,-0.069
18,CATACACG,0.00503
19,CTGCAGGA,0.101
20,CCGTATCA,0.167
21,TTGATAAA,0.277
22,ATAACGGG,-0.105
